# Among all 310,000 compounds or so, about 2,200 (0.71%) showed an effect of 50% or more. Effects have a minus sign here. This is one part of the list.
# Target: human ether-à-go-go-related gene (hERG) potassium channel (human, UniProt Q12809)
# Experiment: primary screen, population patch clamp on CHO cells stably expressing hERG
# Sequence of human ether-à-go-go-related gene (hERG) potassium channel (Q12809 whole entry, looked up): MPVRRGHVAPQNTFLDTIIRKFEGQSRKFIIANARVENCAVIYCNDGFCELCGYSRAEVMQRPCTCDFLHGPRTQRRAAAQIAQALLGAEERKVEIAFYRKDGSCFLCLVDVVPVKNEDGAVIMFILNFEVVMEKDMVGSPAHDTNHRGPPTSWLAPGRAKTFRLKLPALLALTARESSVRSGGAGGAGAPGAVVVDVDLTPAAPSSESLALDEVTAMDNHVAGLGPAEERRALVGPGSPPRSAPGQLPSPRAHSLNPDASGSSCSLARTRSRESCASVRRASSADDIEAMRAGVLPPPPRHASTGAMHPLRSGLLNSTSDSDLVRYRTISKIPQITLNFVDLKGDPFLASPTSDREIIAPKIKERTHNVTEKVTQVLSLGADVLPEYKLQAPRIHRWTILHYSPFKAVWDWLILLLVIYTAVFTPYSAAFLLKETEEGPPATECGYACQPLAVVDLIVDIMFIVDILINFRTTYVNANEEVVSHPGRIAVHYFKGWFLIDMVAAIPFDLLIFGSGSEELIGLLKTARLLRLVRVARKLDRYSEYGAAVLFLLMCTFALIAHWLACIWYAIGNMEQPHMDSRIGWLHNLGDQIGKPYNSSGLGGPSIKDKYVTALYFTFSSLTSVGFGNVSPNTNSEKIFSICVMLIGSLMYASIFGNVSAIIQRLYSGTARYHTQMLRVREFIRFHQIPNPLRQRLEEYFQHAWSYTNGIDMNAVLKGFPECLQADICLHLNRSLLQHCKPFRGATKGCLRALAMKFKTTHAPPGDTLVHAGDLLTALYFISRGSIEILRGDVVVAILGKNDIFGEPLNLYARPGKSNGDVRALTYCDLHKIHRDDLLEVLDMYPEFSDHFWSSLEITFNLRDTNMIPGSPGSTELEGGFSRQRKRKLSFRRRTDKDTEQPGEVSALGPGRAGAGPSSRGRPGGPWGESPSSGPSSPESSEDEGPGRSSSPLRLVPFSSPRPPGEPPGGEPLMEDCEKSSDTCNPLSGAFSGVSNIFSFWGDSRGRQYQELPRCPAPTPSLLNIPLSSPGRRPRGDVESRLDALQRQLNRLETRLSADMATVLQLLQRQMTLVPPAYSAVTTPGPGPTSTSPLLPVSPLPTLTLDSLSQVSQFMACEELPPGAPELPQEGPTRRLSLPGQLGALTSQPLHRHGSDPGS
row,SMILES,"hERG current change (%, negative = inhibition) at 1uM"
1,NC1=NC(=O)/C(=C/c2cccc(F)c2)S1,20.6%
2,N#CC1=C(SCc2ccccc2)NC(=O)CC1c1cccc(O)c1 (stereo not shown),4.28%
3,CCCn1c(=O)c2ccccc2n2c(SCC(=O)/C(C#N)=C(\C)N)nnc12,6.39%
4,Nc1cccc(C(=O)Nc2cccc3ncccc23)c1,18.1%
5,CCOc1cc(C(=O)Nc2ccccc2N2CCN(S(C)(=O)=O)CC2)cc(OCC)c1OCC,-10.1%
6,COc1cc2nc(Nc3cccc(F)c3)nc(N)c2cc1OC.Cl,5.98%
7,Cc1cc2nc(N3CCN(C(=O)c4cccs4)CC3)sc2cc1C,5.28%
8,COc1ccc(Cl)cc1NC(=O)NCC1CCN(Cc2ccccc2F)CC1,12.9%
9,CC(C)(C)c1ccccc1NC(=O)c1ccc2c(c1)SC1=NS(=O)(=O)CCN12,11%
10,COc1cccc(N2CCN(C3CC(=O)N(c4ccc(Cl)c(Cl)c4)C3=O)CC2)c1 (stereo not shown),11%
11,Cc1ccccc1-c1nnc(SCc2ccccc2)o1,0.459%
12,O=C(O)c1ccc(NC(CSCc2cccc(F)c2)C(=O)O)c([N+](=O)[O-])c1 (stereo not shown),17.3%
13,COc1ccc(OCC(=O)Nc2c(C(=O)N3CCC(N4CCCCC4)CC3)oc3ccccc23)cc1,-82.8%
14,Oc1ccc(Cl)cc1C1=NNC(c2cccs2)C1 (stereo not shown),16%
15,O=C(CSc1ncccn1)NCc1ccc(F)cc1,6.72%
16,COc1ccc(C(=O)Nc2nc(CC(=O)NCCc3ccccc3OC)cs2)cc1,0.571%
17,CC(=O)Nc1ccc(S(=O)(=O)N2CCN(c3cc(C)nc4ccccc34)CC2)cc1,-71.6%
18,Cc1c(NC(=S)N/C(=N/S(=O)(=O)c2ccc(Cl)cc2)c2ccccc2)c(=O)n(-c2ccccc2)n1C,14.4%
19,CN(C)S(=O)(=O)c1ccc(NC(=O)N2CCN(c3cccc(C(F)(F)F)c3)CC2)cc1,12.7%
20,CC1CCCCN1C(=O)CCS(=O)(=O)c1cc2c(cc1Cl)NC(=O)CO2 (stereo not shown),0.71%
21,N/C(=N\OC(=O)C12CC3CC(CC(C3)C1)C2)c1cccnc1,5.26%
22,COCCn1c(=S)[nH]c2ccc(N(C)C)cc2c1=O,5.29%

row,SMILES,"hERG current change (%, negative = inhibition) at 1uM"
1,CCOc1cc(/C=N/NC(=O)c2cccc([N+](=O)[O-])c2)ccc1OS(=O)(=O)c1ccccc1,-10.8%
2,Cc1ccc(Cl)cc1NC(=S)N(Cc1ccco1)C(C)c1cccs1 (stereo not shown),12.6%
3,COc1cc(/C=N/NC(=O)c2ccccc2)ccc1O,-5.66%
4,CCOc1c(Cl)cc(CNc2nnnn2C)cc1OC,15.1%
5,O=c1cc(O)sc2ccccc12,11.3%
6,O=C(COc1ccc(C(=S)N2CCOCC2)cc1Cl)Nc1ccccc1Cl,14.4%
7,CCOc1ccc(NC(=O)COC(=O)CCS(=O)(=O)c2ccc(C)cc2)cc1,9.19%
8,NC(=O)c1ccc(C2SCC(=O)N2CCc2ccccc2)cc1 (stereo not shown),7.05%
9,Cc1ccc(S(=O)(=O)C/N=C(/NC(=S)N(c2ccccc2)c2ccccc2)c2ccccc2)cc1,7.99%
10,Cc1cccc(N2C(=O)CC(SC(N)=Nc3ccccc3)C2=O)c1 (stereo not shown),-9.43%
11,NC(=O)c1ccc(NC(=O)C2CC(=O)N(c3ccc4c(c3)OCCO4)C2)cc1 (stereo not shown),3.82%
12,CC(C)c1ncc(S(=O)(=O)c2ccc(C(F)(F)F)cn2)c(N)n1,14.3%
13,CC(=O)Nc1ccc(S(=O)(=O)N2CCN(Cc3cccs3)CC2)cc1.O=C(O)C(=O)O,6%
14,O=S(=O)(c1ccccc1)N1CCc2ccccc2C1,14.6%
15,C/C(=N\OC(=O)c1c(-c2c(F)cccc2Cl)noc1C)c1nccs1,10.3%
16,COC(=O)c1ccc(C)c(NS(=O)(=O)c2ccc(OC)c(OC)c2)c1,4.06%
17,O=C(c1cnc(N2CCN(c3ccccn3)CC2)c2ccccc12)N1CCN(c2cccc(Cl)c2)CC1,-19.9%
18,C=CCn1c(SCC(=O)Nc2ccccc2)nnc1-c1cccc(S(=O)(=O)N2CCOCC2)c1,3.54%
19,O=C(NCc1ccco1)c1cc2ccccc2c(=O)o1,19.5%
20,O=C(Cn1cc(C(=O)C2CCCCC2)c2ccccc21)NCC1CCCO1 (stereo not shown),10.4%
21,Cc1ccc(S(=O)(=O)N(C)C)cc1NC(=O)COC(=O)Cc1ccc(Br)cc1,-3.8%
22,O=[N+]([O-])c1cccc(S(=O)(=O)NCc2ccccn2)c1,18.3%

row,SMILES,"hERG current change (%, negative = inhibition) at 1uM"
1,COc1cccc(NC(=O)COc2ccc(N3CC(C(=O)NCC(C)C)CC3=O)cc2)c1 (stereo not shown),12.7%
2,c1ccc(-c2ccccc2OCCN2CCCC2)cc1,1.5%
3,Cc1ccccc1Nc1nc(-c2cccnc2)nc2ccccc12.Cl,4.67%
4,CC1(C)CC2CC(C)(CN2S(=O)(=O)c2ccc(C(=O)Nc3cc(S(=O)(=O)N4CCOCC4)ccc3Cl)cc2)C1 (stereo not shown),13.3%
5,COc1ccc(/C=C(/NC(=O)c2ccco2)C(=O)N2CCc3ccccc32)cc1OC,10.4%
6,O=C(CSc1ccc2ccccc2n1)Nc1ccc(N2CCOCC2)cc1,9.91%
7,O=C(COc1ccc2c(c1)C(=O)CC1(CCCCC1)O2)NCc1ccccn1,-1.75%
8,Cc1c(S(=O)(=O)Nc2ccc3c(c2)OCCO3)cnn1C,8.87%
9,CCCCc1nc2cc(C(=O)N3CCC[C@H]3CO)ccc2o1,12.8%
10,CC(C)OC(=O)c1c(NC(=O)C2CC=CCC2C(=O)O)sc2c1CCCCC2 (stereo not shown),-0.316%
11,Cc1cc(C)n(-c2nc3sc4c(c3c(=O)[nH]2)CCCC4)n1,4.56%
12,CCCC(=O)NC(=S)NNC(=O)c1ccc([N+](=O)[O-])cc1,9.56%
13,O=S(=O)(c1cccc2nsnc12)N1CCN(c2ccc(F)cc2)CC1,-6.67%
14,O=C1NC(=S)NC(=O)C1=Cc1ccc2c(c1)CCN2CCCCl,9.99%
15,COc1cccc(-c2ncc3ccccc3c2COC(=O)c2cccs2)c1,3.67%
16,O=C(CN1CCS(=O)(=O)CC1)NNC(=O)C1CCCCC1,0.757%
17,Cc1ccccc1C(=O)NNc1ncnc2c1cnn2C,4.15%
18,COc1ccc(/C=N/Nc2nonc2N)c(OC)c1,4.22%
19,C[N+](C)(C)CC#CCOC(=O)Nc1cccc(Cl)c1.[Cl-],10.3%
20,CSc1nnc(Cc2ccc3c(c2)OCO3)o1,9.09%
21,CCN1C[C@]2(C)CC[C@H](OC)[C@]34C2[C@H](OC(C)=O)[C@@]2(OCO[C@@]25C[C@H](OC)[C@H]2C[C@]3(O)C5[C@H]2OC)[C@@H]14,26%
22,CC(C)(C)NC(=O)CCCSc1nc2ccccc2s1,0.265%

row,SMILES,"hERG current change (%, negative = inhibition) at 1uM"
1,CC(C)C(NS(=O)(=O)c1ccccc1)C(=O)NC1CCCC1 (stereo not shown),9.28%
2,CCC(C)[C@H](NC(=O)N1CC(=O)Nc2ccccc21)C(=O)N[C@H](Cc1ccccc1)C(=O)O (stereo partly shown),5.12%
3,Cc1nn(-c2nc3ccccc3s2)c(N)c1Sc1ccc(F)cc1,12.5%
4,O=C(COC(=O)c1ccc2ccccc2n1)NCc1ccccc1,9.15%
5,Cn1c(NCCN2CCCCC2)cc(=O)n(C)c1=O,15.4%
6,CC(C)(C)n1nc2c(c1NC(=O)Cc1cccc3ccccc13)CS(=O)(=O)C2,2.73%
7,CCOc1nc(OCC)nc(-n2cc(-c3ccccc3)nn2)n1,13.7%
8,CC(Oc1ccc(-c2ccccc2)cc1)C(=O)O (stereo not shown),15.5%
9,O=C(NCCCN1CCOCC1)c1cc(-c2ccc(Cl)c(Cl)c2)on1,0.781%
10,CC(C)c1nnc(NC(=O)c2cccs2)s1,11.3%
11,COc1ccc(CN2CC(C(=O)N3CCOCC3)CC2=O)cc1 (stereo not shown),15.2%
12,O=C(Nc1ncccc1O)c1cccc(S(=O)(=O)N2CCc3ccccc32)c1,5.58%
13,O=C(CCC1CCCCC1)Nc1cccc(C(=O)Nc2ccc(C(=O)O)cc2)c1,18.4%
14,CCOC(=O)c1c(Nc2ccccc2OCCOC)n[nH]c1C,11.1%
15,CS(=O)(=O)Nc1ccc(C2=NN(S(C)(=O)=O)C(c3ccc4nccnc4c3)C2)cc1 (stereo not shown),-6.03%
16,Cc1ccc(C(=O)COC(=O)c2cnccn2)cc1C,1.72%
17,COc1ccccc1C(=O)NC(=S)/C=C1/N(C)c2ccccc2C1(C)C,0.693%
18,O=C(O)c1ccc(N2CCCCC2)cc1O,11.3%
19,CCc1ccc(C(=O)COC(=O)[C@@H](NC(N)=O)[C@@H](C)CC)cc1,13.6%
20,COc1ccccc1NS(=O)(=O)c1ccc(NN=C2CCCC2)c([N+](=O)[O-])c1,10.3%
21,COCCSc1ccccc1C(=O)NCCCn1ccnc1,-10.6%
22,COc1ccc(C)cc1N(C(=O)c1ccco1)C(C(=O)NC1CCCC1)c1ccc(N2CCOCC2)cc1 (stereo not shown),3.48%
